Among all 350,000 compounds or so, about 9,900 (2.8%) were called active. The shares of active, inactive and inconclusive entries below differ from those in the screen. Calls follow the shape of the dose curve; as a rule, active = well fitted activation curve with a large enough effect; inconclusive = small, poorly fitted or top-dose-only effect; inactive = no such curve, though single readings can be large or run the other way. No potency is given beside an inconclusive call; the fits are too rough.
Experiment: A quantitative high throughput screen for small molecules that induce DNA re-replication in MCF 10a normal breast cells. Also: nearly all actives have a fitted effect of over 50% in size. As to activity, positive = re-replication: % of control where 0% means no effect.
Conditions: MCF 10A DNA re-replication, Hoechst nuclear intensity, 48 h; activity, positive = re-replication: at 46.1 µM (top of the series)
Potency is read from the fitted curve at half-maximal effect; tags tell the direction and shape of the fitted curve.

Compound	activity, positive = re-replication	Potency
Cc1cc(NC(=O)c2cc3n(n2)C(C(F)(F)F)CC(c2ccco2)N3)n(-c2ccccc2)n1 (stereo not drawn)	inactive: -0.914%	
CC(C)OC(=O)CC(=O)CSc1nc(-c2ccc(F)cc2)cc(-c2ccccc2)c1C#N		inconclusive [activator, single point]
COc1ccc(-c2nn(-c3ccccc3)cc2C(=O)NC(=S)N2CCOCC2)cc1OC		inconclusive [activator, single point]
COc1ccc(OCCSc2nc(N)cc(N)n2)cc1		inconclusive [activator, partial curve, poor fit]
O=C(Nc1ccc(C(O)(C(F)(F)F)C(F)(F)F)cc1)c1ccc(Cl)c([N+](=O)[O-])c1		inconclusive [activator, single point]
O=C1c2ccccc2C(=O)N1Cc1cc(-c2ccc(Cl)cc2)no1		inconclusive [activator, full curve, poor fit]
O=C(Cn1nnc(-c2ccc([N+](=O)[O-])cc2)n1)NNC(=O)c1ccccc1	inactive: -3.33%	
COc1ccc(NS(=O)(=O)c2cccc3ccccc23)cc1		inconclusive [activator, partial curve, poor fit]
CCOc1ccc(-n2c(O)c(/C=N/NC(=O)C3COc4ccccc4O3)c3ccccc3c2=O)cc1 (stereo not drawn)		inconclusive [activator, single point]
Cc1ccccc1NC(=S)NCCc1ccccc1		inconclusive [activator, single point]
O=C(Nc1ccc(N2CCCC2)cc1)c1ccc2ccccc2c1		inconclusive [activator, full curve, poor fit]
O=C(Nc1ccc(C(=O)OC[C@@H]2CCCN3CCCC[C@H]23)cc1)c1cccc(Br)c1		active: 23.1 µM
COC(=O)c1ccc(C)c(NC(=O)COC(=O)C2CC3CCCC(C2)C3=O)c1 (stereo not drawn)	inactive: -3.72%	
COc1ccc(CN(C)CC(O)COc2ccc(-c3ccccc3)cc2)cc1OC (stereo not drawn)		inconclusive [activator, partial curve, poor fit]
O=C(NNC(=O)c1ccccc1-n1cccc1)c1ccc(Cl)nc1	inactive: 0.411%	
COc1ccc(Cl)cc1NC(=O)N1CCN(C2CCCCC2)CC1		inconclusive [activator, partial curve, poor fit]
O=C(N/N=C/c1cccc(Cl)c1)C(c1ccncc1)N1CCOCC1 (stereo not drawn)		inconclusive [activator, single point]
CCc1ccc(NC(=O)C2=CC(c3cccs3)=NS(=O)(=O)N2C)cc1	inactive: -3.37%	
Cc1cc(SCC(=O)c2ccccc2)nc(SCC(=O)c2ccccc2)n1		inconclusive [activator, single point]
CC(C)n1c(N)c(C#N)c2ccc([N+](=O)[O-])cc2c1=O		inconclusive [activator, single point]
COc1ccc(S(=O)(=O)NCCC(=O)OCC(=O)c2ccc[nH]2)cc1[N+](=O)[O-]	inactive: -0.421%	
c1ccc(CCc2nn3c(-c4ccncc4)nnc3s2)cc1		inconclusive [activator, single point]

Compound	activity, positive = re-replication	Potency
Cc1ccc(OC(=O)CCC(=O)NC(C)c2ccccc2)cc1 (stereo not drawn)	inactive: -1.19%	
CCOC(=O)N1CCC(N2CCN(S(=O)(=O)c3ccc4ccccc4c3)CC2)CC1	inactive: 0.0401%	
Cc1cccc(NC(=S)NNC(=O)c2cccc([N+](=O)[O-])c2)c1		inconclusive [activator, partial curve, poor fit]
O=C(O)C1Cc2ccccc2CN1C(=O)c1ccccc1 (stereo not drawn)	inactive: -6.42%	
O=C(Cc1ccc(Br)cc1)N1CCOCC1		inconclusive [activator, single point]
c1ccc(-n2c(Sc3cnccn3)nnc2-c2cccs2)cc1		inconclusive [activator, partial curve, poor fit]
COc1ccccc1/C=C/CN1CCN(c2ccccc2)CC1		inconclusive [activator, single point]
O=C1CCc2cc(S(=O)(=O)NC(C(=O)N3CCN(c4ccccn4)CC3)c3ccccc3)ccc2N1 (stereo not drawn)		inconclusive [activator, full curve, poor fit]
Cc1ccccc1Nc1nc(N)nc(CN(C)Cc2ccccc2Cl)n1		inconclusive [activator, single point]
CCCCn1nc2cc(C(=O)NC3CCc4ccccc43)ccc2c1OCC (stereo not drawn)		inconclusive [activator, single point]
CN(C(=O)CCN1C(=O)C2C3C=CC(C3)C2C1=O)c1ccccc1 (stereo not drawn)	inactive: 2.06%	
Cc1cc(C)cc(C(=O)NC(CC(N)=O)c2ccc(N3CCC(Cc4ccccc4)CC3)c([N+](=O)[O-])c2)c1 (stereo not drawn)	inactive: 0.194%	
O=S1(=O)c2cccc3cccc(c23)N1Cc1nnc(-c2ccccc2Br)o1		inconclusive [activator, single point]
COc1ccc(C2CC(c3ccccc3)=NN2c2ccc(/C=N/NC(=O)c3ccncc3)cc2)cc1 (stereo not drawn)		inconclusive [activator, single point]
O=C(NCCc1ccccc1)c1ccc(Cl)cc1[N+](=O)[O-]		inconclusive [activator, single point]
CN(C(=O)c1cccc(NC(=O)Cc2cccc(NC(=O)C3CCCN(C(=O)C4CCCC4)C3)c2)c1)C1CC1 (stereo not drawn)		inconclusive [activator, partial curve, poor fit]
Cn1c(=S)n(/N=C/c2ccc3c(c2)OCO3)c2ccccc21	inactive: 3.75%	
CN(C)C(=S)N=c1ssc(=S)n1Cc1ccccc1		inconclusive [activator, full curve, poor fit]
CN=C1NC(C)(C)C2CCC(C)(CC2)S1		active: 11.6 µM
C/C(=N\NC(=S)NCCc1ccccc1)c1cccc(Br)c1	inactive: 15.8%	
Cn1c(-c2ccsc2)c(-c2cccs2)c2cc(Br)ccc21		inconclusive [activator, single point]

— PubChem BioAssay AID624296 (National Center for Advancing Translational Sciences (NCATS), 2012)
